Measurements: PubChem BioAssay AID1347073 (National Center for Advancing Translational Sciences (NCATS), 2019)
Hit rate of the full screen: of about 45,000 compounds, about 200 (0.44%) were called active. Not shown: some 7% with an inconclusive outcome. Calls follow the shape of the dose curve; as a rule, active = well fitted activation curve with a large enough effect; inconclusive = small, poorly fitted or top-dose-only effect; inactive = no such curve, though single readings can be large or run the other way. Some of the results follow.

test: qHTS of TDP-43 Inhibitors: NCGC Sytravon Library Screen; conditions: yeast TDP-43 toxicity rescue, BacTiter-Glo growth, 24 h; series mostly up to 46.1 µM; growth rescue (activation): at the top concentration; also: nearly all actives have a fitted effect of over 55% in size; as to growth rescue (activation): 0% is about no effect
Method in brief: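 TDP-43-expressing yeast, pregrown in raffinose, seeded at OD600 0.02 in galactose medium with compound for 24 hr at 30 deg C. Growth read by BacTiter-Glo luminescence, so rescue of toxicity appears as activation.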
Potency is read from the fitted curve at half-maximal effect.

Row | Structure (SMILES) | growth rescue (activation) | Potency
1 | O=C(Cn1cnc2ccccc21)OCC(=O)N1CCCCC1 | inactive: -1.24% | 
2 | CS(=O)(=O)Nc1ccccc1-c1ccc2nccn2c1 | inactive: -6.77% | 
3 | O=C(OCC(=O)N1CCc2ccccc21)c1ccccc1F | inactive: 9.12% | 
4 | NS(=O)(=O)c1ccc(NC(=S)NCCc2ccccc2)cc1 | inactive: -10.7% | 
5 | CC12CCC(C(=O)N(c3ccccc3Cl)C1=O)C2(C)C (stereo not given) | inactive: 14.8% | 
6 | COc1ccc(C(=O)Nc2ncc3c(n2)CC(C)CC3=O)cc1 (stereo not given) | inactive: 12.3% | 
7 | CC(CNC(=O)CN1C(=O)NC2(CCCCC2C)C1=O)c1ccccc1 (stereo not given) | inactive: 16.1% | 
8 | CN1CCN(C(=O)CSc2nc(-c3ccco3)cc(C(F)(F)F)n2)CC1 | inactive: 9.51% | 
9 | COc1ccc(NC(=O)COc2ccc(C(=O)NC3CCCc4ccccc43)cc2OC)cc1 (stereo not given) | inactive: 4.64% | 
10 | Cc1ccc(OC(=O)c2cccnc2)cc1 | inactive: 22.1% | 
11 | c1ccc2[nH]c(NCc3ccc4c(c3)OCO4)nc2c1 | inactive: 3.75% | 
12 | CCN(c1ccccc1)S(=O)(=O)c1ccc(OC)c(NC(=O)CNCCc2ccccc2)c1 | inactive: 18.4% | 
13 | CCOc1ccc(C(O)(c2ccccc2)C(CN2CCCC2)c2ccccc2)cc1 (stereo not given) | inactive: -4.22% | 
14 | COc1ccccc1NCCC(=O)OCC(=O)NC1CCCCC1 | inactive: 13.5% | 
15 | O=C(NCc1ccccc1)c1nc[nH]c1C(=O)NCc1ccccc1 | inactive: 2.4% | 
16 | Cc1cc(C)c(C)c(S(=O)(=O)N2CCCCC2C(=O)O)c1C (stereo not given) | inactive: 10.1% | 
17 | CCn1cc(C(=O)O)c(=O)c2cc(F)c(N3CCN(C(=S)NC(=O)c4ccccc4F)CC3)cc21 | inactive: 3% | 
18 | COc1ccc(Cl)cc1C(=O)OCC(=O)NC1CCCC(C)C1C (stereo not given) |  | active: 17.8 µM
19 | Cc1cc(=O)[nH]c(N/N=C/c2cc(C)n(-c3ccccc3)c2C)n1 | inactive: -14.3% | 
20 | CCC/C=N/NC(=O)c1ccccc1O | inactive: 14.3% | 
21 | CC(NC(=O)c1ccc(N(C)C)cc1)C1CC2CCC1C2 (stereo not given) | inactive: 15.6% | 
22 | CC(=O)c1ccc(NC(=O)c2ccc(NC(=O)CCS(=O)(=O)c3cccs3)cc2)cc1 | inactive: -4.46% | 
23 | CC(=O)NN=C1CCC(c2ccccc2)CC1 (stereo not given) | inactive: 24.4% | 
24 | NC(=S)NN=Cc1ccc(-c2ccc(S(=O)(=O)Nc3ncccn3)cc2)o1 | inactive: 23.5% | 
25 | O=Cc1cc(N=Nc2cccc(C(=O)O)c2)ccc1O | inactive: -14.9% | 
26 | COc1cc(/C=C/C(=O)O)cc(S(=O)(=O)Nc2cc(C(F)(F)F)ccc2N2CCOCC2)c1OC | inactive: 27.3% | 
27 | COc1cc(NC(=O)CSc2nc(C3CC3)nc3ccccc23)cc(OC)c1 | inactive: 15.8% | 

Row | Structure (SMILES) | growth rescue (activation) | Potency
28 | Cc1ccc(C(=O)C2=C(O)C(=O)N(Cc3cccnc3)C2c2ccc(N(C)C)cc2)o1 (stereo not given) | inactive: -1.33% | 
29 | CCc1nc2c(OCC(=O)C(C)(C)C)cccn2c1N(C=O)Cc1ccc(OC)cc1 | inactive: -2.99% | 
30 | CCC(=O)OCCNc1cc(SCCC(=O)OC)c2nonc2c1[N+](=O)[O-] | inactive: -1.19% | 
31 | CCOC(=O)C1C(c2ccc(Cl)cc2)NC(=S)NC1(O)C(F)(F)F (stereo not given) | inactive: 13.2% | 
32 | COCC1CCN(C(=O)C2CCC(=O)N(C3CCCCCC3)C2)CC1 (stereo not given) | inactive: 8.25% | 
33 | O=c1cc(-c2ccccc2)c2cc3c(cc2[nH]1)OCCO3 | inactive: -9.19% | 
34 | COc1ccc(/C=C2\SC(=S)N(CCCC(=O)N3CCOCC3)C2=O)cc1OC | inactive: -6.06% | 
35 | O=C(NNC(=S)Nc1ccc(F)cc1)C1[C@H]2CCCC[C@@H]12 (stereo not given in full) | inactive: 15.4% | 
36 | Cc1ccc(F)c(S(=O)(=O)NC(=O)C2(C)CCN2C(=O)Cc2ccccc2)c1 (stereo not given) | inactive: 3.36% | 
37 | O=C(NCc1ccc(F)c(F)c1)c1cccc2c(-c3cccnc3)coc12 |  | active: 10 µM
38 | Cc1ccn(CCNC(=O)C2CCC(=O)N(Cc3ccc(Cl)cc3)C2)n1 (stereo not given) | inactive: -11.6% | 
39 | O=C(COC(=O)CNC(=O)c1ccccc1)Nc1ccc(F)c([N+](=O)[O-])c1 | inactive: 0.233% | 
40 | O=C(CSc1nnc(Cc2csc(Nc3cccc(Cl)c3)n2)o1)N1CCc2ccccc21 | inactive: 12.8% | 
41 | CC(C)(C)c1ccc(C2C(C(=O)c3ccco3)=C(O)C(=O)N2CC2CCCO2)cc1 (stereo not given) | inactive: 29.9% | 
42 | O=C(Cn1cnc2cc([N+](=O)[O-])ccc2c1=O)Nc1cccc2ccccc12 | inactive: -1.08% | 
43 | COc1ccc(Cc2nnc(NC(=O)c3ccc(OC)c(OC)c3)s2)cc1 | inactive: -4.83% | 
44 | CCc1cccc(NC(=O)Cn2c(-c3ccccc3)cc(C(C)=O)c2C)c1 | inactive: -3.28% | 
45 | CCCS(=O)(=O)NC(=O)C1(C)CCCN(C(=O)c2cc(F)cc(F)c2)C1 (stereo not given) | inactive: 3.34% | 
46 | Cc1ccccc1-c1nc(NC(C)C)nc2cc(-c3ccccc3)sc12 | inactive: 19.7% | 
47 | COc1ccccc1CNC(=O)CN1C(=O)NC(c2ccccc2)(c2ccccc2)C1=O | inactive: 3.47% | 
48 | COc1cc(/C=C/c2noc(-c3ccccc3O)n2)cc(OC)c1OC | inactive: -2.71% | 
49 | CCn1c(=O)c2c(nc(SCC(=O)N3CCC(C)CC3)n2C)n(C)c1=O | inactive: -0.704% | 
50 | CN(CC(=O)NCc1ccccc1Cl)S(=O)(=O)c1cccs1 | inactive: 14.3% | 
51 | Cc1ccc(SCc2cc(=O)[nH]c(SCC(=O)Nc3cc(Cl)ccc3Cl)n2)cc1 | inactive: -0.31% | 
52 | CCOC(=O)c1cc(NC(=O)N2CCCc3ccccc32)c(C)nc1C | inactive: -8.18% | 
53 | Cc1ccc(/C=C2/SC(=S)N(CCC(=O)N3CCOCC3)C2=O)cc1 | inactive: -5.3% | 
54 | Cc1ccc(SCC(=O)NC(=O)c2ccc(S(=O)(=O)N(C)C)cc2)cc1C | inactive: 7.11% | 

Row | Structure (SMILES) | growth rescue (activation) | Potency
55 | COc1cccc(C(=O)OCC(=O)Nc2cc(C)on2)c1OC | inactive: 13.2% | 
56 | O=C(CSc1nnnn1C1CCCC1)Nc1ccccc1N1CCOCC1 | inactive: 2.34% | 
57 | O=C(OCc1ccc(F)cc1)c1cc(=O)c2ccccc2o1 | inactive: 26.9% | 
58 | OC[C@@H]1CN(Cc2ccc(Cl)cc2)C[C@H](n2cnc3c(N4CCCC4)ncnc32)O1 | inactive: 6.86% | 
59 | O=CN1CCN(C(=O)c2ccccc2Cl)CC1 | inactive: 24% | 
60 | Cc1cccc(-n2c(CCN3C(=O)c4ccccc4C3=O)nc3ccccc3c2=O)n1 | inactive: 3.49% | 
61 | O=C(Nc1nnc(N2CCCCCC2)s1)Nc1ccccc1C(F)(F)F | inactive: 26% | 
62 | CC(C)c1cccc(OCC(=O)Nc2ccc(S(=O)(=O)Nc3ccccn3)cc2)c1 | inactive: 7.37% | 
63 | O=C(C1CCN(C2CCN(Cc3cccc4c3OCO4)CC2)CC1)N1CCOCC1 | inactive: 7.7% | 
64 | O=C(c1ccccc1)N1CCN(CC(O)Cn2ccc3ccccc32)CC1 (stereo not given) | inactive: -23.7% | 
65 | COc1ccccc1/C=C(/C(=O)OCC(=O)NCc1ccccc1)c1ccccc1 | inactive: 3.3% | 
66 | COc1ccc(/C=C2\SC(=O)N(CCC(=O)Nc3ccccc3)C2=O)cc1OC | inactive: 5.72% | 
67 | O=C(CCC(=O)Nc1cc(C(F)(F)F)ccc1Cl)N/N=C\c1cc([N+](=O)[O-])ccc1O | inactive: -5.55% | 
68 | CC(=O)c1sc(NC(C)c2ccccc2)nc1C (stereo not given) | inactive: 25.6% | 
69 | COc1ccc(C(=O)COC(=O)c2ccccn2)c(OC)c1 | inactive: -15.7% | 
70 | COC(=O)c1ccc(NC(=O)CCN2C(=O)CSC2=O)cc1 | inactive: 6.7% | 
71 | CCN(CC(=O)NCc1ccc(Cl)cc1)C(=O)c1cc(S(=O)(=O)N2CCOCC2)ccc1C | inactive: 29.8% | 
72 | O=C(OCC(=O)N1CCCc2ccccc21)c1ccccc1OC(F)F | inactive: 18.9% | 
73 | N#CC1=C(N)OC2=C(C(=O)CC(c3ccccc3)C2)C1c1ccc2c(c1)OCO2 (stereo not given) | inactive: 14.4% | 
74 | CCCc1c(O)nc(SC2CC(=O)N(c3ccc(OC)cc3)C2=O)[nH]c1=O (stereo not given) | inactive: -11.7% | 
75 | Cc1nc2ccccc2c(=O)n1/N=C/c1cc(Br)ccc1O | inactive: -4.94% | 
76 | COc1ccccc1C(CNc1ncccc1[N+](=O)[O-])N(C)C (stereo not given) | inactive: 4.98% | 
77 | CC(C(=O)Nc1cccc(S(=O)(=O)N2CCOCC2)c1)N1CCN(c2ccc(F)cc2)CC1 (stereo not given) | inactive: 13.1% | 
78 | CC(=O)Nc1ccc(-c2ccnc3c2CC(C)(C(=O)Nc2cccc(Oc4ccccc4)c2)O3)cc1 (stereo not given) | inactive: 4.55% | 
79 | Cc1ccc(/C=C2\NC(=S)NC2=O)cc1[N+](=O)[O-] | inactive: 13.1% | 
80 | COc1ccc(/C=N/Nc2nnc(Cc3ccccc3)c(=O)[nH]2)cc1OC | inactive: 6.62% | 
81 | OC(c1ccc(F)cc1)C(CN1CCOCC1)c1ccccc1 (stereo not given) | inactive: 5.31% | 

Row | Structure (SMILES) | growth rescue (activation) | Potency
82 | CCCCNC(=O)C1(C)CCCCN1C(=O)c1ccc(F)c(C)c1 (stereo not given) | inactive: -7.8% | 
83 | CC1(C)Cc2c(cnn2-c2cccc(F)c2)C(NC(=O)Cn2cccn2)C1 (stereo not given) | inactive: 0.462% | 
84 | CC(C)C(NC(=O)c1ccccc1F)C(=O)NCc1ccc(F)cc1 (stereo not given) | inactive: 18.5% | 
85 | COc1ccc(S(N)(=O)=O)cc1C(=O)OCC(=O)N1c2ccccc2NC(=O)C1(C)C | inactive: -0.343% | 
86 | Cc1ccccc1C(=O)NC1CCN(C(=O)NC2CCCCC2)CC1 | inactive: 6.82% | 
87 | COc1ccccc1N1CC(C(=O)NC2CCCCCC2)CC1=O (stereo not given) | inactive: 1.01% | 
88 | Cc1occc1-c1nnc(SCC(=O)Nc2ccc(F)cc2)n1C | inactive: -10.6% | 
89 | CNS(=O)(=O)c1cccc(C(=O)OCC(=O)Nc2ccc(-c3nc4ccc(C)cc4s3)cc2)c1 | inactive: 8.15% | 
90 | O=S(=O)(NCCN1CCOCC1)c1ccc(F)c(Cl)c1 | inactive: -4.64% | 
91 | Cc1c(N=Nc2c(-c3ccc([N+](=O)[O-])cc3)[nH]n(C(N)=S)c2=O)cccc1[N+](=O)[O-] | inactive: 6.82% | 
92 | Cc1cc(Cl)ccc1OCCCC(=O)N/N=C/c1cccc([N+](=O)[O-])c1 | inactive: 15.1% | 
93 | CCn1nnc(NC(=O)c2cc(Cl)c(OC)c(Cl)c2)n1 | inactive: 6.07% | 
94 | CCCS(=O)(=O)NC(=O)C1(C)CCN(C(=O)COc2ccccc2)C1 (stereo not given) | inactive: 5.7% | 
95 | COc1ccc(C2C(C(=O)c3ccco3)=C(O)C(=O)N2CCN2CCOCC2)cc1 (stereo not given) | inactive: -7.78% | 
96 | CCOC(=O)c1c(C)c(C(=O)NCc2ccco2)c(C)n1CC | inactive: -1.1% | 
97 | Cc1nn(Cc2ccc(F)cc2Cl)c(C)c1[N+](=O)[O-] | inactive: 24.3% | 
98 | Cc1cc(C(=O)N/N=C/c2ccc(-c3cccc(Cl)c3)o2)n[nH]1 | inactive: -1.22% | 
99 | COc1ccc(C(=O)NNC(=O)CCC(=O)Nc2cc(C)on2)cc1 | inactive: -21.1% | 
100 | CN(/N=C/c1ccc(N(C)C)cc1)C1=NS(=O)(=O)c2ccccc21 | inactive: 12.5% | 
101 | Cc1ccc(C)c(NC(=S)NNC(=S)Nc2ccc(C(C)C)cc2)c1 | inactive: 6.89% | 
102 | O=C(NCC1CCCO1)c1ccccc1NS(=O)(=O)c1ccc(Br)s1 (stereo not given) | inactive: 14.3% | 
103 | Cn1nc([N+](=O)[O-])nc1Sc1nnc(-c2ccccc2)o1 | inactive: 27.8% | 
104 | O=C(Nc1ncc(C(F)(F)F)cc1Cl)c1ccc(S(=O)(=O)N2CCOCC2)cc1 | inactive: 9.8% | 
105 | Cc1cc(C)c(C#N)c(Cl)n1 | inactive: 5.37% | 
